# Results as given in a collection of fitness landscapes (doi:10.1126/science.1257360).
# Some of the results follow.
# B1: PhoQ; a variant is named by its letters at X, in order, P23837 (parent)
# chain: MKKLLRLFFPLSLRVRFLLATAAVVLVLSLAYGMVALIGYSVSFDKTTFRLLRGESNLFYTLAKWENNKLHVELPENIDKQSPTMTLIYDENGQLLWAQRDVPWLMKMIQPDWLKSNGFHEIEADVNDTSLLLSGDHSIQQQLQEVREDDDDAEMTHSVAVNVYPATSRMPKLTIVVVDTIPVELKSSYMVWSWFIYVLSANLLLVIPLLWVAAWWSLRPIEALAKEVRELEEHNRELLNPATTRELTSLVRNLNRLLKSERERYDKYRTTLTDLTHSLKTPLXXLQXXLRSLRSEKMSVSDAEPVMLEQISRISQQIGYYLHRASMRGGTLLSRELHPVAPLLDNLTSALNKVYQRKGVNISLDISPEISFVGEQNDFVEVMGNVLDNACKYCLEFVEISARQTDEHLYIVVEDDGPGIPLSKREVIFDRGQRVDTLRPGQGVGLAVAREITEQYEGKIVAGESMLGGARMEVIFGRQHSAPKDE
# Variants of: B1
# Assay: enrichment ratio after two sorts for PhoP signalling (ratio (wild type AVST 3.29)); higher = more functional
# Details: with PhoP (E. coli)
row,Variant,enrichment ratio
1,QLIM,≤ 0.25
2,PAIC,≤ 0.25
3,GDIA,4.2
4,SVLP,≤ 0.25
5,SIKM,≤ 0.25
6,SSWI,2.38
7,LFKR,≤ 0.25
8,NRKY,≤ 0.25
9,VTEL,≤ 0.25
10,DHYE,≤ 0.25
11,ESVY,≤ 0.25
12,RPND,≤ 0.25
13,APAD,≤ 0.25
14,YRSN,≤ 0.25
15,LSFC,0.328
16,WTLR,≤ 0.25
17,SMEQ,≤ 0.25
18,YPRG,≤ 0.25
19,IFFC,≤ 0.25
20,AVTH,9.18
21,PSPA,≤ 0.25
22,VDSG,≤ 0.25
23,NPHR,≤ 0.25
24,IWFY,≤ 0.25
25,GQFN,≤ 0.25

row,Variant,enrichment ratio
1,KKAD,≤ 0.25
2,IYNG,≤ 0.25
3,MRAM,≤ 0.25
4,LLQL,≤ 0.25
5,PKPC,≤ 0.25
6,YKYT,≤ 0.25
7,SQIM,20.8
8,WADL,≤ 0.25
9,LFWG,≤ 0.25
10,YQDT,≤ 0.25
11,GFKM,≤ 0.25
12,EVAV,≤ 0.25
13,GKWI,≤ 0.25
14,MFYT,≤ 0.25
15,VSGD,≤ 0.25
16,KGSR,≤ 0.25
17,TPMA,≤ 0.25
18,YRMY,≤ 0.25
19,LVSG,≤ 0.25
20,RMEK,≤ 0.25
21,VMVS,≤ 0.25
22,LDWK,≤ 0.25
23,EYWQ,≤ 0.25
24,CAFT,≤ 0.25
25,YNIT,≤ 0.25

row,Variant,enrichment ratio
1,GVNP,≤ 0.25
2,NITN,≤ 0.25
3,DATT,≤ 0.25
4,SDGG,≤ 0.25
5,IPIW,≤ 0.25
6,LEFD,≤ 0.25
7,LRGC,≤ 0.25
8,FFNQ,≤ 0.25
9,KTYK,≤ 0.25
10,FTIS,≤ 0.25
11,TFWE,≤ 0.25
12,TNSG,8.46
13,ANIW,≤ 0.25
14,PCNF,≤ 0.25
15,GYIQ,≤ 0.25
16,FDDF,≤ 0.25
17,ISCL,≤ 0.25
18,YACR,≤ 0.25
19,IALW,≤ 0.25
20,SNTQ,5.26
21,FPIT,≤ 0.25
22,IQNR,≤ 0.25
23,HKLR,≤ 0.25
24,RWYM,≤ 0.25
25,KYGM,≤ 0.25

row,Variant,enrichment ratio
1,PTKM,≤ 0.25
2,MADP,≤ 0.25
3,LCTF,≤ 0.25
4,HAHL,≤ 0.25
5,VCRC,≤ 0.25
6,GFFH,≤ 0.25
7,FPHR,≤ 0.25
8,RDRN,≤ 0.25
9,WRPN,≤ 0.25
10,QDRN,≤ 0.25
11,RFCL,≤ 0.25
12,YANF,≤ 0.25
13,HTQN,≤ 0.25
14,TNFT,≤ 0.25
15,YNAC,≤ 0.25
16,FNNT,≤ 0.25
17,FMKT,≤ 0.25
18,KQGD,≤ 0.25
19,GILP,≤ 0.25
20,WIIY,≤ 0.25
21,MKKR,≤ 0.25
22,TNCH,≤ 0.25
23,KDGD,≤ 0.25
24,HEFW,≤ 0.25
25,LWRM,≤ 0.25

row,Variant,enrichment ratio
1,VEVQ,≤ 0.25
2,DHYA,≤ 0.25
3,IQWS,≤ 0.25
4,LGKG,≤ 0.25
5,WSKH,≤ 0.25
6,IQMS,≤ 0.25
7,TEKM,≤ 0.25
8,AKCH,4.9
9,VPSY,≤ 0.25
10,KGKN,≤ 0.25
11,QTRH,≤ 0.25
12,FTRH,≤ 0.25
13,HKEA,≤ 0.25
14,IQLI,≤ 0.25
15,RFAY,1.64
16,AQFD,≤ 0.25
17,TFVD,≤ 0.25
18,KHKN,≤ 0.25
19,DVGW,≤ 0.25
20,PPWG,≤ 0.25
21,GKMN,≤ 0.25
22,YKGT,≤ 0.25
23,IEQY,≤ 0.25
24,NPHF,≤ 0.25
25,IQRD,≤ 0.25

row,Variant,enrichment ratio
1,YMPF,≤ 0.25
2,DCTW,≤ 0.25
3,RKAP,≤ 0.25
4,TFKH,≤ 0.25
5,PLSC,≤ 0.25
6,PREY,≤ 0.25
7,FKKW,≤ 0.25
8,PMEC,≤ 0.25
9,TEYQ,2.43
10,IWHH,≤ 0.25
11,IKLI,≤ 0.25
12,DFRL,≤ 0.25
13,FHNM,≤ 0.25
14,AFFM,≤ 0.25
15,LNFE,≤ 0.25
16,RKWE,≤ 0.25
17,WPQG,≤ 0.25
18,DHTD,≤ 0.25
19,VASR,≤ 0.25
20,LNFI,≤ 0.25
21,VLMF,≤ 0.25
22,TSLF,9.28
23,KGDK,≤ 0.25
24,TQNK,≤ 0.25
25,GSAI,5.6

row,Variant,enrichment ratio
1,MHLR,≤ 0.25
2,LCKP,≤ 0.25
3,EQTE,≤ 0.25
4,PTED,≤ 0.25
5,QLFY,≤ 0.25
6,MAPG,≤ 0.25
7,WVIW,≤ 0.25
8,GKTT,≤ 0.25
9,PYNE,≤ 0.25
10,WSPH,≤ 0.25
11,GYLG,≤ 0.25
12,GRYE,≤ 0.25
13,RMCI,≤ 0.25
14,ARPN,≤ 0.25
15,GNIS,5.86
16,GMQS,≤ 0.25
17,PDPI,≤ 0.25
18,ANSA,7.31
19,RLYY,≤ 0.25
20,RSHV,≤ 0.25
21,MHVE,≤ 0.25
22,VCLT,0.608
23,WAKG,≤ 0.25
24,AWFG,≤ 0.25
25,CALH,≤ 0.25

row,Variant,enrichment ratio
1,WMLS,≤ 0.25
2,DFLG,≤ 0.25
3,MRQV,≤ 0.25
4,QYSS,≤ 0.25
5,DGLH,≤ 0.25
6,CLCI,≤ 0.25
7,MNDH,≤ 0.25
8,AWHG,≤ 0.25
9,GWYM,≤ 0.25
10,QKSS,≤ 0.25
11,AWSW,≤ 0.25
12,AQDM,≤ 0.25
13,GYHH,≤ 0.25
14,DVCI,≤ 0.25
15,VVNC,≤ 0.25
16,FWGP,≤ 0.25
17,MDHS,≤ 0.25
18,NPPH,≤ 0.25
19,IRVK,≤ 0.25
20,QEPF,≤ 0.25
